From PMC4081100 come the findings set out here.

Only a part is listed here, and it is no random draw. For some of these results: At the low end of the ranking, values are background and their order means little. Some of the results follow. For some of these results: The source does not settle which construct or isoform was used.

Assay in all cases: universal protein binding microarray (PBM)
What all share (conditions): transcription factors of Arabidopsis thaliana; high values mean tight binding; most listed sequences are background and not binding sites; double strand, one strand shown

One test concerns the target GST-NTL6(1-168) (UniProt Q9SCK6).
A further test has as its target T1, GST-ANAC055(1-171) (UniProt Q9LDY8).
T1 sequence: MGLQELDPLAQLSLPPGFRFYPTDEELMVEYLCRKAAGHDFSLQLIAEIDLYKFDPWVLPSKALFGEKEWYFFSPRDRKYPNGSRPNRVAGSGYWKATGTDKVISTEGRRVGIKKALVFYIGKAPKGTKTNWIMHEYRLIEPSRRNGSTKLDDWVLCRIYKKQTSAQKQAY

The target in another test is T2, GST-ATAF1 NAC domain (UniProt Q39013).
T2 sequence: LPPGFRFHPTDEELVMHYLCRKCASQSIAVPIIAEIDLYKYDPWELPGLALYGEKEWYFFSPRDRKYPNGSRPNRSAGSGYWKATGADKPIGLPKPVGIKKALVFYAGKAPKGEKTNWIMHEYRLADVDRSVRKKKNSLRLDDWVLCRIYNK

For test [1], the target named is T3, GST-ANAC092(1-285) full length (UniProt Q9FKA0).
T3 sequence: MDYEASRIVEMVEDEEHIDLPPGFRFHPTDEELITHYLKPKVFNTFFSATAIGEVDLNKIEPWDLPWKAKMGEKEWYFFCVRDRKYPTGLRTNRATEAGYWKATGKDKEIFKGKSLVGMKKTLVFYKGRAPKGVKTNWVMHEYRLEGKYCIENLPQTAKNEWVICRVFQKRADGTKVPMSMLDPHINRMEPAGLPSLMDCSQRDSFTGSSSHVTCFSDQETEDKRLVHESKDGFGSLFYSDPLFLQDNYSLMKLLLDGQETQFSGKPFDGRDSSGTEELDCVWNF

A further test deals with T4, GST-NAP(1-166) (UniProt O49255).
T4 sequence: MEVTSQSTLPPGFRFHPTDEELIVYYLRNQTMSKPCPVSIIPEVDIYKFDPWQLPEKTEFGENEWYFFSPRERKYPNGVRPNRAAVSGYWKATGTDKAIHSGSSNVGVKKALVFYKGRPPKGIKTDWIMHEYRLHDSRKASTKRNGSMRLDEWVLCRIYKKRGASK

Another test concerns the target T5, GST-VND3 NAC domain (UniProt Q9FH59).
T5 sequence: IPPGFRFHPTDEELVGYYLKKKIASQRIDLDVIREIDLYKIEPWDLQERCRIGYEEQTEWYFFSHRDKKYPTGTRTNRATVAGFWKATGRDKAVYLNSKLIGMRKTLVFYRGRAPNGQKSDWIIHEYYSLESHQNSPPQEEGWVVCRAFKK

Another test concerns the target T6, GST-VND7 NAC domain (UniProt Q9C8W9).
T6 sequence: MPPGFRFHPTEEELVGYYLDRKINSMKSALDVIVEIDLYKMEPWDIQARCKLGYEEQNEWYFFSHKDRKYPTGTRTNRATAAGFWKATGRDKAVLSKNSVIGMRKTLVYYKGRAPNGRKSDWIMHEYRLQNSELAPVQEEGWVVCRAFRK

Test [2] addresses T7, GST-VOZ2 (Arabidopsis thaliana) (UniProt Q9SLB9).
T7 sequence: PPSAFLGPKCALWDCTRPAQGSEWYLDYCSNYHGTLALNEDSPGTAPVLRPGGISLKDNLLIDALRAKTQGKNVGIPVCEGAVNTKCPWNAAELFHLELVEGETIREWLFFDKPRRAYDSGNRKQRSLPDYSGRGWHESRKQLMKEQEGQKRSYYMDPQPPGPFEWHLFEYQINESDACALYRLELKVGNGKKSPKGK

A further test concerns the target GST-WRKY1(266-371) (UniProt Q9SI37).
For the next test, the target named is T8, GST-ANAC092(1-176) (UniProt Q9FKA0).
T8 sequence: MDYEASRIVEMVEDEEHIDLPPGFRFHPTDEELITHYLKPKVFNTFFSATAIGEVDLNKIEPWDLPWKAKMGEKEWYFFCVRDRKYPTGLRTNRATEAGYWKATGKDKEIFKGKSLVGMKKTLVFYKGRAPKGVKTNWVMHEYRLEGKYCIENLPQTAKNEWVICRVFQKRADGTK

The next test has as its target T9, GST-ANAC019 NAC domain (UniProt Q9C932).
T9 sequence: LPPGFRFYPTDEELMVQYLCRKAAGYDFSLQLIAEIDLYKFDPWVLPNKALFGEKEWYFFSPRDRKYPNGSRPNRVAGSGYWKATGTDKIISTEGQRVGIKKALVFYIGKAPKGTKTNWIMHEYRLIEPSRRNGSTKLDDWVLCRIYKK

For a further test, the target named is T10, GST-NTL8 NAC domain (UniProt Q9XIN7).
T10 sequence: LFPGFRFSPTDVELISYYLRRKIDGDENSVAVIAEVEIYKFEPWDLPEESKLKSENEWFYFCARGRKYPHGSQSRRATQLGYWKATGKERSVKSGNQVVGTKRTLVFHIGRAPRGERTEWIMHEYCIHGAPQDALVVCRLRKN

A further test deals with T11, GST-NST2(1-184) (UniProt Q9M274).
T11 sequence: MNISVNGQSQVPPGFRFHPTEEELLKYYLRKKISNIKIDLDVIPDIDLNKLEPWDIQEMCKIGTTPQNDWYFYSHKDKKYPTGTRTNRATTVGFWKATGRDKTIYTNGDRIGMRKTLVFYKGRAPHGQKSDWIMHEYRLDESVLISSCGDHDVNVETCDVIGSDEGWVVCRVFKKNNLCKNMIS

For the sequence AGGAAAGG, the binding signal in the test with GST-NTL6(1-168) is 0.0725 E-score; with GST-ANAC055(1-171), -0.0786 E-score; in the test with GST-ATAF1 NAC domain, -0.0755 E-score; in test [1], 0.0104 E-score; with GST-NAP(1-166) it was -0.0741 E-score; with GST-VND3 NAC domain it was -0.0383 E-score. The binding signal with GST-VND7 NAC domain was 0.0354 E-score; in test [2], -0.0699 E-score; with GST-WRKY1(266-371), 0.0426 E-score.

Turning to TGAGGAAA, the binding signal with GST-ANAC092(1-176) was 0.0937 E-score; in the test with GST-ANAC019 NAC domain, -0.0166 E-score; in the test with GST-ANAC055(1-171), 0.0458 E-score; with GST-ATAF1 NAC domain, 0.0379 E-score; in [1] it was -0.0367 E-score; in the test with GST-NAP(1-166) it was 0.0209 E-score. Further, the binding signal in the test with GST-NTL8 NAC domain is 0.429 E-score; with GST-VND3 NAC domain, 0.0216 E-score; with GST-VND7 NAC domain, -0.0128 E-score; in [2], 0.0459 E-score; with GST-WRKY1(266-371), 0.0414 E-score.

For the sequence CTAAGGAA, the binding signal in the test with GST-ANAC092(1-176) is 0.125 E-score; with GST-ANAC019 NAC domain, -0.00551 E-score; with GST-ANAC055(1-171), -0.0236 E-score; in the test with GST-ATAF1 NAC domain it was 0.023 E-score; in test [1], 0.128 E-score; in the test with GST-NAP(1-166) it was -0.172 E-score. Moreover, the binding signal in the test with GST-NTL8 NAC domain was 0.246 E-score; with GST-VND3 NAC domain, 0.0301 E-score; in the test with GST-VND7 NAC domain, -0.0226 E-score; in test [2], -0.0612 E-score; in the test with GST-WRKY1(266-371), -0.135 E-score.

With AAGCAAGC, the binding signal with GST-NTL6(1-168) was 0.167 E-score; with GST-ANAC019 NAC domain, 0.0929 E-score; with GST-ANAC055(1-171) it was -0.0323 E-score; in the test with GST-ATAF1 NAC domain, -0.0987 E-score; in [1], 0.417 E-score; with GST-NAP(1-166), -0.0647 E-score. The binding signal with GST-VND3 NAC domain is 0.139 E-score; with GST-VND7 NAC domain, 0.114 E-score; in test [2], -0.176 E-score; with GST-WRKY1(266-371), -0.23 E-score.

Take AGGTAAGG: the binding signal with GST-ANAC092(1-176) was 0.0372 E-score; with GST-ANAC055(1-171) it was -0.0267 E-score; in the test with GST-ATAF1 NAC domain, 0.0332 E-score; in the test with GST-NAP(1-166), -0.0174 E-score; with GST-NST2(1-184) it was 0.0194 E-score; with GST-NTL8 NAC domain, 0.424 E-score. For the same sequence, the binding signal with GST-VND3 NAC domain is -0.0612 E-score; with GST-VND7 NAC domain, 0.0475 E-score; in test [2] it was 0.0855 E-score; in the test with GST-WRKY1(266-371), -0.0049 E-score.

As for AACGTAAG, the binding signal was 0.196 E-score in the test with GST-NTL6(1-168); 0.213 E-score in the test with GST-ANAC055(1-171); 0.255 E-score with GST-ATAF1 NAC domain; 0.204 E-score in the test with GST-NAP(1-166); 0.262 E-score with GST-NST2(1-184); 0.124 E-score in the test with GST-NTL8 NAC domain. Besides, the binding signal was 0.289 E-score with GST-VND3 NAC domain, 0.226 E-score with GST-VND7 NAC domain, 0.0484 E-score in [2] and 0.019 E-score with GST-WRKY1(266-371).

For CACGCCAG, the binding signal was -0.139 E-score with GST-NTL6(1-168); -0.00392 E-score in the test with GST-ANAC055(1-171); 0.000215 E-score with GST-ATAF1 NAC domain; 0.429 E-score in test [1]; -0.0276 E-score with GST-NAP(1-166); 0.0167 E-score with GST-NST2(1-184). The binding signal with GST-NTL8 NAC domain is -0.111 E-score; with GST-VND3 NAC domain, 0.0346 E-score; with GST-VND7 NAC domain it was -0.0421 E-score; in [2], 0.0297 E-score; in the test with GST-WRKY1(266-371), -0.151 E-score.

As to ATCGCGTA, the binding signal is -0.00688 E-score with GST-NTL6(1-168); 0.0371 E-score with GST-ANAC019 NAC domain; -0.000445 E-score in the test with GST-ANAC055(1-171); 0.149 E-score with GST-NAP(1-166); 0.211 E-score with GST-NST2(1-184); 0.018 E-score in the test with GST-NTL8 NAC domain. In addition, the binding signal in the test with GST-VND3 NAC domain is 0.00987 E-score; in the test with GST-VND7 NAC domain, 0.104 E-score; in test [2], 0.218 E-score; in the test with GST-WRKY1(266-371), -0.0745 E-score.

On to CTGGCGTA, for which the binding signal in the test with GST-ANAC092(1-176) is 0.371 E-score; with GST-NTL6(1-168), -0.0241 E-score; with GST-ATAF1 NAC domain, 0.00081 E-score; in the test with GST-NAP(1-166), -0.0584 E-score; in the test with GST-NTL8 NAC domain it was -0.0477 E-score; in the test with GST-VND3 NAC domain it was -0.0231 E-score. The binding signal was 0.0306 E-score with GST-VND7 NAC domain, 0.0789 E-score in test [2] and -0.177 E-score with GST-WRKY1(266-371).

Take CTCACGCA: the binding signal was 0.0381 E-score with GST-NTL6(1-168); 0.194 E-score in the test with GST-VND3 NAC domain; 0.193 E-score in the test with GST-VND7 NAC domain; 0.0563 E-score in [2]; -0.0579 E-score in the test with GST-WRKY1(266-371).

Take ATCGCGTG: the binding signal in the test with GST-NTL6(1-168) was -0.178 E-score; in the test with GST-ANAC019 NAC domain, -0.0654 E-score; with GST-ANAC055(1-171), -0.0663 E-score; with GST-ATAF1 NAC domain, -0.136 E-score; with GST-NAP(1-166) it was 0.0283 E-score; with GST-NTL8 NAC domain, -0.117 E-score. In addition, the binding signal with GST-VND3 NAC domain is -0.00534 E-score; with GST-VND7 NAC domain, -0.0696 E-score; in test [2] it was -0.138 E-score; in the test with GST-WRKY1(266-371), -0.0193 E-score.

Consider AAGTCAAG, for which the binding signal with GST-ANAC092(1-176) is -0.0387 E-score; with GST-ANAC019 NAC domain it was -0.0129 E-score; with GST-ANAC055(1-171) it was 0.00688 E-score; with GST-NAP(1-166), -0.115 E-score; in the test with GST-NTL8 NAC domain, -0.0807 E-score; with GST-VND3 NAC domain, -0.0719 E-score. The binding signal with GST-VND7 NAC domain was -0.0261 E-score; in [2] it was -0.0534 E-score; with GST-WRKY1(266-371), 0.479 E-score.

AAGGGTCA: the binding signal was 0.0421 E-score with GST-ANAC092(1-176); -0.0512 E-score with GST-ANAC019 NAC domain; -0.0496 E-score with GST-ANAC055(1-171); -0.0824 E-score in the test with GST-ATAF1 NAC domain; 0.0121 E-score in test [1]; -0.0935 E-score with GST-NAP(1-166). The binding signal with GST-NST2(1-184) was -0.00411 E-score; in the test with GST-NTL8 NAC domain, 0.0489 E-score; with GST-VND3 NAC domain, 0.0269 E-score; in the test with GST-VND7 NAC domain, 0.029 E-score; in test [2] it was -0.0224 E-score; with GST-WRKY1(266-371) it was 0.409 E-score.
